Assay results: PubChem BioAssay AID485281 (National Center for Advancing Translational Sciences (NCATS), 2010)
About 260 (0.074%) of roughly 350,000 compounds were called active. Inconclusive means that the source gave no clear call. Such entries were picked first, then a sample of the others. The call rests on the fitted dose curve; in most records, active means well fitted inhibition curve with a large enough effect; inconclusive means small, poorly fitted or top-dose-only effect; inactive means no such curve, though single readings can be large or run the other way. A potency beside an inconclusive call is a rough fit, not a confirmed value.

Molecular target: Ferritin light chain (Equus caballus) (UniProt P02791)
Chain of UniProt P02791 (P02791 whole entry, looked up): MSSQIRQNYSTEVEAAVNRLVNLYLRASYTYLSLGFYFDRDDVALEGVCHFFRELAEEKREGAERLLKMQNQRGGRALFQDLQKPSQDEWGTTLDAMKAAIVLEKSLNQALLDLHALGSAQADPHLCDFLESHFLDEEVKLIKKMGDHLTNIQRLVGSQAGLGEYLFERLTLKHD
Assay: qHTS Assay for Identification of Novel General Anesthetics; further: nearly all actives have a fitted effect of over 20% in size
Settings: apoferritin/1-aminoanthracene competitive binding, fluorescence; series mostly up to 77.5 µM
Method in brief: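 Steps: apoferritin (10 uM) was premixed with half-saturated 1-AMA in PBS, compounds were pin-transferred, plates stood 10 min at room temperature, fluorescence was read at 380/535 nm, and curves were fitted with a Hill equation.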
Potency means the concentration at half of the fitted maximal effect; tags describe the fitted curve by direction and shape.

Potency, inactive:
O=C(c1ccc(S(=O)(=O)NCc2ccco2)cc1)N1CCN(Cc2ccccc2)CC1
CC1(C)Nc2ccccc2C(=O)N1NS(=O)(=O)c1ccccc1
Cc1cccc(Nc2ncnc3nc[nH]c23)c1
Cc1nc(/C(N)=N/OC(=O)c2ccccc2Cl)c(C(F)(F)F)o1
COCCCNC(=S)NC(=O)c1ccc(C)cc1
O=C(NCCc1ccccc1)c1sc2ncccc2c1-n1cccc1
N=C1/C(=C\c2ccc(-c3cccc(Cl)c3)o2)C(=O)N=C2SC=C(c3ccccc3)N12
COC(=O)CSc1nc(-c2ccc(C)cc2)c2c(c1C#N)CCCC2
S=C(NCCc1c[nH]c2ccccc12)NC1CCCC1
O=C(/C=C/C#Cc1cccc(NS(=O)(=O)c2ccccc2)c1)NO
CCOC(=O)CSc1nsc(SCC(=O)OCC)c1C#N
Cc1ccc(N(C(=O)c2csnn2)C(C(=O)NCc2ccccc2)c2ccccn2)cc1 (centres undefined)
COc1cc2c(cc1OC)C(COc1ccccc1OC)N(C(=O)COc1ccc(Cl)cc1)CC2 (centres undefined)

Potency, inconclusive:
CC(=O)c1cccc(CN2CCC(C(=O)Nc3ccc(Oc4cccnc4)cc3)CC2)c1 35.5 µM [inhibitor, partial curve]
CCc1ccc(C(=O)CSc2nc3ccccc3c(=O)[nH]2)cc1 17.8 µM [inhibitor, partial curve]
Cc1ccc(-n2ccc(=O)c(-c3ccnc(SCc4cccc(Cl)c4)n3)n2)cc1 7.94 µM [inhibitor, full curve]
O=C(Cc1cccs1)N1CCN=C1SCc1ccc(F)cc1 28.2 µM [inhibitor, partial curve]
CCN1C(=O)CSc2ccc(C(=O)NCc3ccc(OC)cc3)cc21 28.2 µM [inhibitor, single point]
Cc1ccc2nc(N(CCCN(C)C)C(=O)c3ccc(S(=O)(=O)N4CCc5ccccc5C4)cc3)sc2c1 11.2 µM [inhibitor, partial curve]
CC1CCN(C(=O)CCc2nnc3ccc(NCc4ccco4)nn23)CC1 25.1 µM [inhibitor, partial curve]
CCCn1nc(C(=O)Nc2cccc(C(=O)OC)c2)c2ccccc2c1=O 39.8 µM [inhibitor, partial curve]
CCOc1ccc(-n2c(SCC(=O)NCC3CCCO3)nc3c([nH]c4ccccc43)c2=O)cc1 (centres undefined) 2.82 µM [inhibitor, partial curve]
COc1ccccc1NS(=O)(=O)c1ccc(Cl)cc1 25.1 µM [inhibitor, partial curve]
COc1ccc([C@]23Cc4ccccc4C(O2)c2c(cc(C)n(Cc4ccccc4)c2=O)O3)cc1 1.78 µM [inhibitor, full curve]
O=C(NC(NNc1ccc([N+](=O)[O-])cc1)(C(F)(F)F)C(F)(F)F)c1ccc(F)cc1 28.2 µM [inhibitor, partial curve]
COc1ccc(F)cc1C(=O)C1CCCN(Cc2cn(C)c3ccccc23)C1 (centres undefined) 6.31 µM [inhibitor, full curve, poor fit]
O=C1COc2ccc(C(=O)CSc3nnnn3-c3ccccc3)cc2N1 31.6 µM [inhibitor, partial curve]
COc1ccc(C2=NOC(C(=O)N3CCCc4ccccc43)C2)cc1 (centres undefined) 39.8 µM [inhibitor, partial curve]
CC(=O)c1ncnn1CC(=O)c1ccc(Cl)cc1Cl 31.6 µM [inhibitor, partial curve]
O=C(Nc1cccc(NC(=O)c2cccs2)c1)c1ccc2c(c1)OCO2 25.1 µM [inhibitor, partial curve]
COc1c(-c2coc3cc4c(cc3c2=O)CC(O)C(C)(C)O4)ccc2c1C=CC(C)(C)O2 (centres undefined) 10 µM [inhibitor, partial curve]
O=[N+]([O-])c1cc(F)c(N2CCCCC2)cc1N1CCOCC1 17.8 µM [inhibitor, partial curve]
CCN(C(=O)c1ccc(C)c(Br)c1)c1ccccc1 39.8 µM [inhibitor, partial curve]
O=C1c2ccccc2N2C(=O)c3ccccc3C2N1O (centres undefined) 28.2 µM [inhibitor, partial curve]
CCOc1ccc(NCc2cc3c(C(C)(C)C)nn(-c4ccccc4)c3[nH]c2=O)cc1 3.55 µM [inhibitor, full curve]
Cc1cccc(Nc2nc(CC(=O)O)cs2)c1 39.8 µM [inhibitor, partial curve]
N#Cc1cccc(Nc2c3c(nc4ccccc24)CCCC3)c1 17.8 µM [inhibitor, partial curve]
CC1CCC/C(=N\NC(=O)COc2ccc(Cl)cc2Cl)C1 (centres undefined) 44.7 µM [inhibitor, single point]
Cc1cc(NC(=O)CSc2ccc3ccccc3c2)no1 20 µM [inhibitor, partial curve]
Cc1cc(C)n(-c2nc3ccccc3nc2N2CCC(C)CC2)n1 39.8 µM [inhibitor, partial curve]
COc1cc(CNc2ccc3c(c2)OCCO3)ccc1OCC(N)=O 12.6 µM [inhibitor, partial curve]
O=C(Nc1nnc(SCc2ccccc2)s1)c1cc2c(s1)CCCC2 44.7 µM [inhibitor, partial curve, poor fit]
Nn1c(SCc2cccc(C(F)(F)F)c2)nnc1-c1ccco1 44.7 µM [inhibitor, partial curve, poor fit]
O=C(Cc1ccc(-n2cnnn2)cc1)NC12CC3CC(CC(C3)C1)C2 44.7 µM [inhibitor, single point]
